From PubChem BioAssay (NCATS)
Inconclusive results, whose numbers are uncertain, are shown with a selection of clear calls. Potencies beside an inconclusive call are fits to weak or partial responses and may not hold up. Calls of active or inactive are those of the source. Calls follow the shape of the dose curve; as a rule, active = well fitted cell-killing curve with a large enough effect; inconclusive = small, poorly fitted or top-dose-only effect, or effect the other way; inactive = no such curve, though single readings can be large or run the other way.

How the values were obtained:
[1] = Viability qHTS for spleen associated tyrosine kinase inhibitor (SYKi) naive MV4-11 cells (AID 1963823); conditions: MV4-11 AML viability, CellTiter-Glo luminescence, 72 h; viability (% of control): at 45 µM (top of the series); also: nearly all actives have a fitted effect of over 40% in size
Method in brief: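 Cells: MV4-11, SYK inhibitor naive, 500 per well. Treatment: library compounds, 72 hr, 37 C, 5% CO2. Read-out: CellTiter-Glo luminescence after 10 min RT.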

[2] = Viability qHTS for spleen associated tyrosine kinase inhibitor (SYKi) drug resistant MV4-11 cells (AID 1963824); also: nearly all actives have a fitted effect of over 35% in size
Method in brief: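 SYK inhibitor-resistant MV4-11 AML cells, 500 per well, added to predispensed compounds and incubated 72 hr at 37 C, 5% CO2. Viability measured by CellTiter-Glo luminescence after 10 min at room temperature.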
Potency is read from the fitted curve at half-maximal effect; tags tell the direction and shape of the fitted curve.

SMILES | Potency [1] | Potency [2] | viability (% of control) [1] | viability, % of control [2]
C=C(C)[C@@H]1CC[C@]2(C(=O)O)CC[C@]3(C)C(CCC4[C@@]5(C)C[C@@H](O)[C@H](O)C(C)(C)C5CC[C@]43C)C12 (some centres not stated) | inconclusive: 5.02 µM [cytotoxic, partial curve] | inconclusive: 8.93 µM [cytotoxic, partial curve] | – | –
CN=C(N)NC(=O)Nc1c(C)cccc1C | inconclusive: 0.0053 µM [cytotoxic, full curve, poor fit] | inactive | – | –
CC(C)(C)n1nc(-c2ccc(Cl)cc2)c2c(N)ncnc21 | inconclusive: 5.17 µM [cytotoxic, full curve] | inconclusive: 4.61 µM [cytotoxic, full curve] | – | –
CCCCCCCCCCC[C@@H](C[C@@H]1OC(=O)[C@H]1CCCCCC)OC(=O)[C@H](CC(C)C)NC=O | inconclusive: 11.9 µM [cytotoxic, partial curve] | inconclusive: 1.33 µM [cytotoxic, partial curve] | – | –
Cc1cc(=O)oc2c(C=O)c(O)ccc12 | inconclusive: 18.4 µM [cytotoxic, single point] | inconclusive: 20.6 µM [cytotoxic, partial curve] | – | –
COc1ccc(C(=O)Nc2c(Cl)cncc2Cl)cc1OC1CCCC1 | inconclusive: 9.2 µM [cytotoxic, partial curve] | inconclusive: 13 µM [cytotoxic, partial curve] | – | –
Cc1cc(-n2nc3ccc(Cl)cc3n2)c(O)c(C(C)(C)C)c1 | inconclusive: 2.37 µM [rising, partial curve, poor fit] | inactive | – | –
C[C@@H]1O[C@@H](OC[C@H]2O[C@@H](OCc3ccccc3)[C@H](O)[C@@H](O)[C@@H]2O)[C@H](O)[C@H](O)[C@H]1O | inactive | inactive | – | –
COc1cc(C[C@H]2COC(=O)[C@@H]2Cc2ccc(O)c(OC)c2)ccc1O | inactive | inactive | – | –
CC(C)C1CCC(C(=O)N[C@@H](Cc2ccccc2)C(=O)O)CC1 (some centres not stated) | inactive | inactive | – | –
O=C(Nc1ccn(Cc2c(F)cccc2C(F)(F)F)n1)c1c(F)cccc1F | – | – | inactive: 72.8% [at 9.25 µM] | inactive: 91.5% [at 9.25 µM]
COc1cc2c3cc1Oc1cc(ccc1O)C[C@@H]1c4c(cc(OC)c(O)c4Oc4ccc(cc4)C[C@@H]3N(C)CC2)CC[N+]1(C)C | inactive | inconclusive: 15 µM [cytotoxic, partial curve, poor fit] | – | –
CC(C)(C)c1ccc(CNC(=S)NCc2ccc(NS(C)(=O)=O)c(F)c2)cc1 | inconclusive: 0.651 µM [cytotoxic, partial curve, poor fit] | inconclusive: 3.26 µM [cytotoxic, single point] | – | –
CCCCn1ccc(N2CCC(c3ccccc3)CC2)c(Cl)c1=O | inconclusive: 8.2 µM [cytotoxic, partial curve] | inconclusive: 8.2 µM [cytotoxic, partial curve] | – | –
O=C(O)CC1CC(c2ccccc2)=NO1 (configuration not stated) | inactive | inconclusive: 0.0034 µM [rising, full curve, poor fit] | – | –
COc1ccc(C2(CNC(=O)c3ccc(NC(=O)c4ccco4)cc3)CCOCC2)cc1 | inactive | inactive | – | –
CC1=CC(=O)C2(OC3OC(C)C(O)C(OC(=O)/C=C/c4ccccc4)C3O)C=COC(OC3OC(CO)C(O)C(O)C3O)C12 (configuration not stated) | inactive | inactive | – | –
CC(C)(O)/C=C/CC(C)(O)C1C(O)CC2(C)C3CCC4C(C)(C)C(=O)CCC4(C)C3CCC12C (configuration not stated) | inactive | inconclusive: 8.93 µM [cytotoxic, single point] | – | –
C[C@@H]1CC[C@@]23CC[C@]4(C)[C@@](C=CC5[C@@]6(C)CC[C@H](O)C(C)(C)C6CC[C@]54C)(OC2=O)C3[C@H]1C (some centres not stated) | inactive | inconclusive: 15.9 µM [cytotoxic, single point] | – | –
Cc1ccc(-c2ncccn2)c(C(=O)N2C[C@H](COc3ccc(F)cn3)CC[C@H]2C)c1 | inactive | inconclusive: 20.6 µM [cytotoxic, partial curve] | – | –
C/C=C(\C)C(=O)O[C@@H]1CC2[C@@H](CC=C3C[C@@H](O[C@H]4C[C@H](OC)[C@H](O[C@H]5C[C@H](OC)[C@H](O[C@H]6C[C@H](OC)[C@H](O[C@H]7C[C@@H](OC)[C@H](O[C@@H]8O[C@H](CO)[C@@H](O)[C@H](O)[C@H]8O)[C@@H](C)O7)[C@@H](C)O6)[C@@H](C)O5)[C@@H](C)O4)CC[C@@]32C)[C@@]2(O)CC[C@H](C(C)=O)[C@@]12C (some centres not stated) | inconclusive: 6.16 µM [cytotoxic, single point] | inconclusive: 6.16 µM [cytotoxic, single point] | – | –
